# Assay results published in PubChem BioAssay AID463173 (ICCB-Longwood Screening Facility, Harvard Medical School, 2010).
# The whole screen tested about 52,000 compounds, of which about 1,700 (3.3%) were called active. No stated cut-off is given here; in the data, active means survival mostly below about 52% (no sharp cut-off); inactive means mostly above about 56%. The list shows a part of the results.
# Tested on: Wild type
# Experiment: growth inhibition of S. aureus wild type versus tarO mutant, primary screen, teichoic acid synthesis inhibitors, RN4220, OD600 (AID 463173)
# Conditions: S. aureus RN4220 wild type/DeltatarO growth, OD600, 18 h, stronger effect = lower value, screened at 18.75 µg/mL (by protocol)
row,Compound,survival
1,Cc1ccc(-c2nnc3ccccc3c2C(=O)Nc2ccc(F)cc2)cc1,inactive: 143%
2,COc1ccc(C(C)=O)cc1CSc1nc(Nc2ccc(F)c(F)c2)c2ccccc2n1,inactive: 19%
3,O=C(O)c1cc(-c2ccccc2)nn1Cc1ccccc1,inactive: 68%
4,Cc1ccn2c(Nc3ccccc3)c(-c3c[nH]c4ccccc34)nc2c1,inactive: 68%
5,Cc1cc(C)cc(NC(=O)C(=O)NCCc2sc(-c3cccc(F)c3)nc2C)c1,inactive: 99%
6,O=C(CSc1nc2ccccc2c(=O)n1C1CCCCC1)NCc1ccco1,inactive: 106%
7,CC(=O)Nc1ccc(NC(=O)c2ccc3c(c2)CCN3S(=O)(=O)c2ccc(C)cc2)cc1,inactive: 90%
8,Cc1ccc(-c2nnc(Nc3ccc(OCC(N)=O)cc3)c3ccccc23)cc1S(=O)(=O)NCC1CCCO1 (stereo unspecified),inactive: 166%
9,O=C(CCn1cnc2onc(-c3ccc(F)cc3)c2c1=O)Nc1cccc(C(F)(F)F)c1,inactive: 80%
10,Cc1noc(Cn2c(=O)c3ccccc3n(CC(=O)Nc3cc(Cl)ccc3C)c2=O)n1,inactive: 70%
11,CCOC(=O)c1[nH]c2ccccc2c1NC(=O)c1ccc(C)c(C)c1,inactive: 84%
12,O=C(CSc1n[nH]c(-c2ccccc2)n1)N1CCN(c2ccc(F)cc2)CC1,inactive: 65%
13,CCC(C(=O)NCCc1ccc(OC)c(OC)c1OC)n1nc(C)c2sc3ccccc3c2c1=O (stereo unspecified),inactive: 106%
14,Cc1ccc(CNC(=O)C2CCN(C(=O)N3CC(C)Oc4ccc(Cl)cc43)CC2)cc1 (stereo unspecified),inactive: 96%
15,Cc1ccc(-n2c(=O)c3c(cnn3C)n(CC(=O)Nc3cccc(Cl)c3)c2=O)cc1,inactive: 64%
16,CCOc1ccccc1NC(=O)CN1C(=O)CC(c2ccc(C)c(C)c2)=Nc2ccccc21,inactive: 91%
17,CCOc1ccc(NC(=O)c2ccc3c(=O)n4c(nc3c2)CCCCC4)cc1,inactive: 152%
18,Cc1cc(C)cc(NC(=O)C(C)N2Cc3ccccc3C2=O)c1 (stereo unspecified),inactive: 63%
19,Cc1ccc(C)c(N2CCN(CCCNC(=O)c3cnn(-c4cccc(Cl)c4)c3C3CCN(C(=O)OC(C)(C)C)CC3)CC2)c1,inactive: 64%

row,Compound,survival
1,CCc1ccccc1NC(=O)CCn1cccn1,inactive: 131%
2,Cc1ccc(CSc2nc3ccccc3c3nc(CCn4c(C)nc5ccccc54)nn23)cc1,inactive: 73%
3,O=C(Nc1cccc2ccccc12)OCCn1nnnc1CN1CCOCC1,inactive: 115%
4,CCCNC(=O)CN1C(=O)COc2ccc(S(=O)(=O)N3CCCCCC3)cc21,inactive: 80%
5,O=C(NCc1cccc(Br)c1)C1CCCCN1S(=O)(=O)c1ccc(F)cc1 (stereo unspecified),inactive: 70%
6,COc1cccc(NC(=O)C(C)n2c(=O)cc(C(F)(F)F)c3c(C)nn(C)c32)c1 (stereo unspecified),inactive: 75%
7,CC(C)Oc1ccc(CNC(=O)C(C)n2ccc3cc(S(=O)(=O)N4CCCCCC4)ccc32)cc1 (stereo unspecified),inactive: 69%
8,CCc1ccc(CNC(=O)CN2C(=O)C3CCCCN3c3ccc(C(=O)N4CCCC4)cc32)cc1 (stereo unspecified),inactive: 71%
9,CC1CCN(S(=O)(=O)c2ccc3c(c2)N(C)C(=O)CC(=O)N3C)CC1,inactive: 74%
10,COc1ccc(OCc2nc3ccccc3n2Cc2ccc(C(C)(C)C)cc2)cc1,active: 0%
11,CCOc1ccccc1NC(=O)Cn1c(=O)nc(-c2ccccc2F)c2cc(Cl)ccc21,inactive: 72%
12,COc1ccccc1NC(=O)c1cc2c(-c3ccccc3)nn(-c3ccccc3)c2s1,inactive: 77%
13,CCc1ccccc1NC(=O)Cn1c(=O)n(C(C)C)c(=O)c2oc3ccccc3c21,inactive: 94%
14,CCN(CC)C(=O)Cn1c(SCC(=O)Nc2ccc(F)cc2)nc2ccccc21,inactive: 73%
15,COCCNC(=O)c1ccc(Cn2c(SCC(N)=O)nc3ccccc3c2=O)cc1,inactive: 82%
16,CCOC(=O)CSc1nc(-c2cccnc2)nn1C(=O)c1ccccc1,inactive: 111%
17,Cc1cc(=O)n2nc(N3CCC(C(=O)Nc4ccc(Br)c(C)c4)CC3)sc2n1,inactive: 94%
18,CCOc1ccccc1C(=O)NCc1ccc2c(c1)CCN2C(=O)c1ccc(F)cc1,inactive: 77%
19,COc1ccc2c(CNC3CCC(C)CC3)c(C(=O)O)n(Cc3ccc(F)cc3)c2c1 (stereo unspecified),inactive: 84%

row,Compound,survival
1,COc1cccc(OCCSc2nc3ccccc3n2CC(=O)N2CCOCC2)c1,inactive: 81%
2,Cc1ccc(N(Cc2cccs2)C(=O)c2ccc(OC(C)C)cc2)cc1,inactive: 106%
3,Cn1c(SCc2ccc(F)cc2)nc2ccc(C(=O)NCc3cccc(Cl)c3)cc21,inactive: 86%
4,COc1ccc2[nH]c(=O)c(CN(Cc3ccc4c(c3)OCO4)Cc3nnnn3CCc3ccccc3)cc2c1,inactive: 113%
5,CCN(C(=O)c1c(C)oc2ncnc(N3CCCCC3)c12)c1cc(C)ccc1C,inactive: 66%
6,COc1ccc(-c2noc(CN(C(=O)c3ccc(C)cc3C)C(C)C)n2)cc1,active: 0%
7,CCOC(=O)c1ccccc1NC(=O)CSc1ccc(-c2sc(C)nc2C)nn1,inactive: 81%
8,Cc1ccc(C(=O)NCCc2csc(-c3cccc(F)c3)n2)cc1C,inactive: 78%
9,CCOC(=O)c1cnc2c(ccc3ccccc32)c1Nc1ccccc1O,inactive: 74%
10,CCOC(=O)c1cccc(NC(=O)COc2ccc3c(C)cc(=O)oc3c2)c1,inactive: 74%
11,COc1ccc(C2CC(=O)Nc3c2c(C)nn3-c2nncc(-c3ccccc3)n2)c(OC)c1OC (stereo unspecified),inactive: 86%
12,COc1cc2nc(NCCc3cccc(C)c3)n3nc(-c4ccccc4)nc3c2cc1OC,inactive: 77%
13,CCOc1ccccc1C(=O)Nc1cccc(-c2nc3ccccc3s2)c1,inactive: 48%
14,CC1=C(C#N)c2nc(N)c(C#N)c(C)c2/C1=C\C=C\c1ccccc1,inactive: 117%
15,Cc1cc(C)cc(NC(=O)NCc2noc3ccccc23)c1,inactive: 87%
16,CCC(=O)N1CCCc2cc(S(=O)(=O)N3CCC(C(=O)NC4CCC(C)CC4)CC3)ccc21 (stereo unspecified),inactive: 124%
17,Cc1ccc(C)c(NC(=O)c2cnc(N3CCCC3)nc2C)c1,inactive: 67%
18,O=C(OCc1cc(=O)n2nc(C3CC3)sc2n1)c1cccc(NC(=O)c2ccccc2Cl)c1,inactive: 57%
